Screen size: about 110,000 compounds; about 230 (0.21%) showed an effect of 50% or more. The list shows a part of the results.
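Note: 30 min substrate incubation versus DMSO and 10 µM JCP410 controls.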

In the assay the target is DPAP1 (Plasmodium falciparum, UniProt Q8IIJ9). Briefly: primary screen, percent inhibition; read by cleavage of a fluorogenic dipeptide substrate; higher = more effect of the substance. More on the design: species or system P. falciparum D10 trophozoite lysates; single well.
Chain of DPAP1 (Q8IIJ9 whole entry, looked up): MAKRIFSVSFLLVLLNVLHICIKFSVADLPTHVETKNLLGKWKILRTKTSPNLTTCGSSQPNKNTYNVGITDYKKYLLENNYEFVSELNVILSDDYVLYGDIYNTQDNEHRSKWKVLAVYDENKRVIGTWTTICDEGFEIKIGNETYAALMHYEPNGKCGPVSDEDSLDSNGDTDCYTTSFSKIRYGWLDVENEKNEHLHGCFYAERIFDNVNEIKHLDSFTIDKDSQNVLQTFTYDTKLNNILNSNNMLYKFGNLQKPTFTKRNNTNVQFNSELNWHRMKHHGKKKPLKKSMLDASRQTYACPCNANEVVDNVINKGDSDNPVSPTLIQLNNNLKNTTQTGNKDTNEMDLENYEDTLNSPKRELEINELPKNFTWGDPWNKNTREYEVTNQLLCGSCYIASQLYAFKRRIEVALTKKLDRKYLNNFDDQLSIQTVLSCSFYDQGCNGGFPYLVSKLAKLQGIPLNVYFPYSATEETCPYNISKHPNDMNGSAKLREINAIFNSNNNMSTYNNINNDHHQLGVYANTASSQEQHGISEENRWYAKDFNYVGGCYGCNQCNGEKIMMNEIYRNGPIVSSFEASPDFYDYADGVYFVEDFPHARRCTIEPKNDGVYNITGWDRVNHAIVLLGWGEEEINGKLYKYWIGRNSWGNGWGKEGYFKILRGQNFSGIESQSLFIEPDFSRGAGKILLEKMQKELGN
Consider `O=C(Cn1nnc(-c2ccccc2Cl)n1)NC1CCCC1`, for which the “% Inhibition @ 10 uM” value turned out to be 4.19%.
The value for `CCOc1ccc2nc(N(CCN(CC)CC)C(=O)c3ccco3)sc2c1` was 6.08%; that for `CCc1nn2c(=O)cc(COc3ccc(/C=C4/C(=N)N5C(C)=CSC5=NC4=O)cc3)nc2s1` was -5.76%.
In the case of `CC(C)C[C@H](NC(=O)c1ccccc1)C(=O)NC(C)CN(C)C` (stereo partly shown), the “% Inhibition @ 10 uM” value was determined as 3.01%.
The value for `O=C(Nc1nc(-c2ccccc2)ns1)c1ccccc1` was -3.37%; that for `C/N=C1\S/C(=C\c2ccc(OCC(=O)O)c(Cl)c2)C(=O)N1C` was 1.69%; that for `O=C(Nc1cccnc1)c1cccc(Cl)c1` was -0.233%.
Then `c1ccc(-c2onc3ccc(-n4cccc4C4OCCO4)cc23)cc1`, with 3.73%; and `Cc1ccc(S(=O)(=O)Cc2ccc(C(=O)NCCC(C)C)o2)cc1`, with -1.28%; and `CCOC(=O)c1c(C)[nH]c(C)c1S(=O)(=O)NCC(=O)Nc1ccc(C)cn1`, with 4.37%.
The value for `O=C(NCCC1=CCCCC1)c1cc(S(=O)(=O)NCCc2ccccc2)ccc1F` was -1.99%; that for `COc1ccc(CN2CCN(c3c(-c4cc(C)c(C)cc4C)c(=O)c3=O)CC2)c(OC)c1OC` was 1.74%; that for `CCC1CCC(N(C)CC(O)c2ccccc2)CC1` (stereo not shown) was 3.15%.
`O=C(Nc1ccc(Nc2ccccc2)cc1)c1ccc(Br)o1`: the “% Inhibition @ 10 uM” value was -3.33%.
Consider `NC(=O)C1CCCN(Cc2ccc(F)c(F)c2)C1` (stereo not shown), for which the “% Inhibition @ 10 uM” value is -3.27%.
Then `Clc1ccccc1CN1CCC(N2CCCCC2)CC1`, with 1.26%; and `O=C1c2cccnc2C(=O)N1Cc1ccc(F)cc1S(=O)(=O)NCc1ccccc1Cl`, with -2.19%.
Then `CC1=C(c2ccc(C)cc2)S(=O)(=O)N=C1N(C)Cc1ccccc1`, with 2.27%.
The value for `COc1ccc(C(=O)Nc2nc3c(C)cccc3s2)cc1` was -6.67%.
For `Cc1csc(Sc2nc3c(c(=O)[nH]c(=O)n3C)n2Cc2ccccc2Cl)n1`, the “% Inhibition @ 10 uM” value was -8.39%.
Then `COc1ccc(CN2CCN(CCO)CC2)cc1Br`, with 3.47%; and `COc1ccc2cc(S(=O)(=O)c3ccc(C)c(C)c3)c(=O)oc2c1`, with 5.32%.
With `COc1ccc2nc(NC(=O)c3c(OC)cccc3OC)sc2c1`, the “% Inhibition @ 10 uM” value is 0.9%.
The value for `O=C1c2cccnc2C(=O)N1CCc1ccc(S(=O)(=O)N2CCN(C3CCCCC3)CC2)cc1` was -2.13%; that for `COc1ccc(CNCCC(c2ccccc2)c2ccco2)cc1OC` (stereo not shown) was 3.59%; that for `COc1ccccc1C(=O)N1CCN(c2nnc(-c3ccccc3)c3ccccc23)CC1` was -5.1%.
With `Clc1cccc(N2CCN(Cc3c(Cl)cccc3Cl)CC2)c1`, the “% Inhibition @ 10 uM” value came out at 2.99%.
The value for `COc1ccc(CCNC(=O)CCc2c(C)c3cc4c(C)coc4cc3oc2=O)cc1OC` was 3.94%.
Then `CN1CCN(c2nc3c(c(=O)n(C)c(=O)n3C)n2Cc2ccccc2Cl)CC1`, with 1.39%; and `CC1CCCC(NC(=O)Cn2cc3c(n2)CCCC3)C1C` (stereo not shown), with 3.4%.
For `CCCn1c(C(O)c2ccc(OC)c(OC)c2)nc2ccccc21` (stereo not shown), the “% Inhibition @ 10 uM” value stood at 7.13%.
Then `COc1ccc(N2CN=C3SCC(=O)N3C2)cc1`, with -0.274%; and `CS(=O)(=O)N(Cc1ccccc1)Cc1ccccc1`, with 1.4%; and `COc1cccc2c1cc1c(=O)n(CC(=O)NCCC3=CCCCC3)nc(C)n12`, with -3.47%.
The value for `CN(CCN1CCOCC1)C1CCN(C(=O)CNC(=O)/C=C/c2cccc(C(F)(F)F)c2)CC1` was -4.71%; that for `COc1ccc(S(=O)(=O)N(C)CC(=O)Nc2ccc(Cl)cc2C)cc1` was -0.171%.
Then `CCOc1ccc(C(=O)Nc2ccc(S(=O)(=O)N3CCC(C)CC3)cc2)cc1`, with -4.69%.
In the case of `COc1ccccc1C(CC(=O)NC1CCOC(C)(C)C1)c1ccc(OC(C)C)cc1` (stereo not shown), the “% Inhibition @ 10 uM” value is listed as -5.08%.
Then `COCCNC(=O)c1nc(-c2ccc(Cl)cc2)n2c1CCCCC2`, with 5.7%; and `CCOC(=O)c1c(NC(=O)/C=C/c2ccc(C(C)C)cc2)sc2c1CCCC2`, with 6.08%.
Then `COc1cccc(NC(=O)Nc2cccc3ccccc23)c1`, with -4.05%; and `COC(=O)c1ccc(-c2cc(C(=O)O)c3cc4c(cc3n2)OCCO4)cc1`, with -2.24%; and `COc1ccc(/C=C2/NC(=O)N(Cc3ccccc3)C2=O)cc1Br`, with -0.312%.
Then `COCCN1CC23C=CC(O2)C(C(=O)O)C3C1=O` (stereo not shown), with 2.39%; and `COCCNc1ncc(Br)nc1Br`, with -4.93%.
As for `CS(=O)(=O)N(CC(=O)Nc1ccc2c(c1)OCCO2)C1CCCCC1`, the “% Inhibition @ 10 uM” value is reported as -2.32%.
Then `Cc1nc2ccc(NC(=O)Nc3ccc4ccccc4c3)cc2s1`, with -1.98%.
The value for `O=C(O)CN(CC(=O)O)c1ccccc1` was 2.31%; that for `CN(Cc1ccccc1)C(=O)C(C(=O)c1ccc(F)cc1)n1cc(Cl)ccc1=O` (stereo not shown) was -2.91%; that for `COc1ccc(C(=O)NCc2ccccc2OC)cc1` was -1.48%.
Consider `CCN1CCN(C(=O)CS(=O)(=O)Cc2nc(-c3ccc(C)cc3)oc2C)CC1`, for which the “% Inhibition @ 10 uM” value is -3.7%.
In the case of `COc1cc(C(C)(C)C)cc(Br)c1O`, the “% Inhibition @ 10 uM” value is given as 0.878%.
As for `COc1ccc(NC(=O)C2=C(C)NC(=O)NC2c2cccs2)c(OC)c1` (stereo not shown), the “% Inhibition @ 10 uM” value is given as -4.67%.
The value for `Oc1cc(C(F)(F)F)nc2c(-c3ccc(Cl)cc3)cnn12` was -9.17%; that for `CC(=O)Nc1ccc(N/C=C2/CCCCC2=O)cc1` was -2.77%; that for `COc1ccc([C@H]2NCC[C@@]3(O)CCCC[C@H]23)c(OC)c1` was -11.5%.
The value for `COc1ccc(CCNC(=O)COc2ccc3c(=O)c(-c4ccccc4)coc3c2)cc1OC` was 3.27%; that for `CSc1ccc(CN2CCN(C/C=C/c3ccccc3)CC2)cc1` was 0.501%.
As to `Clc1ccc(C2CC(c3ccc(-c4ccccc4)cc3)Nc3nnnn32)cc1` (stereo not shown), the “% Inhibition @ 10 uM” value is recorded as -7.08%.
Then `N#C/C(=C\Nc1ccccc1)c1nc(-c2cc3cc(Br)ccc3oc2=O)cs1`, with -5.26%; and `COc1ccc2c(c1)c1nc(SCc3cccnc3)n(CCO)c(=O)c1n2C`, with 4.95%; and `CC1Cc2nn(-c3ccccc3)c(-c3ccc(O)cc3)c2C(=O)C1C` (stereo not shown), with -0.703%.
The value for `CCc1ccc(OCC(O)CNC(C)C)cc1` (stereo not shown) was 4.08%.
The value for `Cc1ccc(S(=O)(=O)Oc2ccc(-c3cnc4ccccc4n3)cc2)cc1` was 0.986%.
With `COCCn1c(CN2CCOCC2)nc2c1c(=O)n(C)c(=O)n2C`, the “% Inhibition @ 10 uM” value was -1.43%.
Take `N#C/C(=C(/O)c1ccc(Cl)cc1Cl)c1nc2ccccc2[nH]1`: the “% Inhibition @ 10 uM” value is listed as -5.7%.
Then `CCOC(=O)c1sc2nc(-c3cccnc3)ccc2c1N`, with -2.2%.
Then `O=C1Nc2ccccc2C(O)(C(=O)N2CCOCC2)N1c1cccc(C(F)(F)F)c1` (stereo not shown), with -1.36%.
Regarding `COc1cc(OC)c(OC)cc1/C=C1\N=C(c2cccc(Cl)c2Cl)OC1=O`, the “% Inhibition @ 10 uM” value was -11%.
Then `CC1CCCCN1C(=O)c1ccc(CNS(=O)(=O)c2cccc(C(F)(F)F)c2)cc1` (stereo not shown), with -1.57%; and `COc1cccc(OCc2ccc(C(=O)NCC3CCCO3)cc2)c1` (stereo not shown), with 2.92%.
Then `O=C(Nc1cccc(C(F)(F)F)c1)c1cccc(Br)c1`, with 1.63%.
Then `COc1ccc(NC(=O)C(c2ccccc2)c2ccccc2)cc1`, with -7.6%; and `O=C(Nc1ccc(Cl)cc1)Nc1ccc(F)c(F)c1`, with -4.57%.
For `CCOc1ccc2c(c1)nc(NCCO)n2CC`, the “% Inhibition @ 10 uM” value is recorded as -5.48%.
Then `CN(C)CCn1c(SCc2ccccc2C#N)nc2c(sc3ccccc32)c1=O`, with 9.6%; and `CC1CCN(C(=O)c2ccc(Cl)c(Cl)c2)CC1`, with 1.38%.
Then `CCc1ccccc1NS(=O)(=O)c1ccc(OC)cc1`, with -3.44%.
The value for `O=NN1CCN(c2ccncc2S(=O)(=O)N2CCCCC2)CC1` was -4.52%.
`CC(C(=O)N(C)Cc1ccccc1)n1ccc2cc(S(=O)(=O)N3CCCCCC3)ccc21` (stereo not shown): the “% Inhibition @ 10 uM” value was -4.19%.
As for `CCOc1cc(/C=C(/C#N)c2nc(-c3ccc(OC)cc3)cs2)ccc1O`, the “% Inhibition @ 10 uM” value was -3.26%.
`CCN(Cc1ccccc1)C(=O)Cn1c(SCc2ccc(C)cc2)nc2cccnc21`: the “% Inhibition @ 10 uM” value was -0.613%.
Then `Cc1cc(C)n(-c2nc(NC(C)(C)C)nc(N3CCOCC3)n2)n1`, with 2.05%; and `O=C(Nc1ccncc1)c1ccc(CNS(=O)(=O)c2cccc(C(F)(F)F)c2)cc1`, with 4.11%.
Then `O=C1NC(c2cccc(F)c2)=N/C1=C\C=C\c1ccccc1`, with 0.64%; and `CC(c1ccc(C2CC2C2CC2)o1)c1ccc(C2CC2C2CC2)o1` (stereo not shown), with 3.06%.
Then `O=C(NCCc1ccccc1)c1ccc(NS(=O)(=O)c2cccc(F)c2)cc1`, with -9.26%.
Turning to `CCOC(=O)c1c(C)oc2ccc(O)cc12`, the “% Inhibition @ 10 uM” value is recorded as -0.128%.
Then `O=C(CNS(=O)(=O)c1ccc(Br)s1)N1CC=C(c2ccccc2)CC1`, with 3.27%; and `O=C(c1ccccc1)N(Cc1ccccc1)[C@H]1C[C@@H]1c1ccccc1`, with -2.42%; and `Cc1ccc(-c2cc(C(=O)NCc3ccc(S(N)(=O)=O)cc3)c3ccccc3n2)cc1`, with -2.3%.
The value for `Cc1ccccc1NC(=O)c1ccc([N+](=O)[O-])cc1C(=O)O` was 0.00784%; that for `Cn1nc(C(=O)Nc2cccnc2)c2c1-c1ccccc1SC2` was 33.9%; that for `CC(C)=C1C2CCC1C(C(=O)Nc1ccc(C)c(C)c1)C2C(=O)O` (stereo not shown) was -0.994%.
Then `CCNC(=O)N(C)Cc1nc(-c2ccc(OC)c(OC)c2)no1`, with -3.49%; and `C=C1c2ccccc2NC(=O)N1c1ccc(Cl)c(Cl)c1`, with -1.55%.
For the compound `CC1(C)CC(=O)C(/C=N/c2ccccc2C(N)=O)=C(O)C1`, the “% Inhibition @ 10 uM” value is recorded as -4.48%.
As for `CCC(C)NC(=O)C1c2ccccc2C(=O)N(C2CCCC2)C1c1cccs1` (stereo not shown), the “% Inhibition @ 10 uM” value is -0.825%.
Then `CCn1cc(/C=C(\NC(=O)c2ccccc2F)C(=O)NCc2ccco2)c2ccccc21`, with -3.52%; and `CCCCCOc1ccc(/C=C/C(=O)NCc2ccco2)cc1OC`, with 10.6%.

Values taken from publication PMC6919601, “Identification of Plasmodium dipeptidyl aminopeptidase allosteric inhibitors by high throughput screening” (PLoS ONE, 2019).
